# Some of the results follow. Single values are uncertain, as repeats are few or missing.
# System: A101D
# Assay: cell count relative to DMSO control; melanoma cells; higher = more viable cells
# Details: library dose: standard library concentration; 72 h
# 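Also: cells treated in 1,536-well plates, then fixed and DAPI-stained, with nuclei counted from automated high-throughput microscope images.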
row,Compound,cell count
1,"CO[C@H]1C[C@@H]2CC[C@@H](C)[C@@](O)(O2)C(=O)C(=O)N2CCCC[C@H]2C(=O)O[C@H]([C@H](C)C[C@@H]2CC[C@@H](OCCO)[C@H](OC)C2)CC(=O)[C@H](C)/C=C(\C)[C@@H](O)[C@@H](OC)C(=O)[C@H](C)C[C@H](C)/C=C/C=C/C=C/1C [everolimus] + C/C(O)=C(\C#N)C(=O)Nc1cc(Br)ccc1Br [LFM-A13] (first compound 0.1 µM, partner dose 10 µM)",76.6%
2,"O=C1NC(=O)/C(=C/c2ccc(-c3ccc(F)cc3O)o2)S1 + O=C(Oc1ccc([N+](=O)[O-])cc1)N1CCC(C(O)(c2ccc3c(c2)OCO3)c2ccc3c(c2)OCO3)CC1 [JZL184] (first compound 5 µM, partner dose 5 µM)",102%
3,"COc1ccc(COc2ccc(Cc3cnc(N)nc3N)cc2OC)cc1 + C/C(O)=C(\C#N)C(=O)Nc1cc(Br)ccc1Br [LFM-A13] (first compound 5 µM, partner dose 10 µM)",95%
4,"Oc1cc(-c2nc(-c3ccccc3)[nH]c2-c2ccncc2)ccc1Cl + C/C(O)=C(\C#N)C(=O)Nc1cc(Br)ccc1Br [LFM-A13] (first compound 1 µM, partner dose 10 µM)",67.7%
5,"Oc1nc(-c2ccc(C(F)(F)F)cc2)nc2c1CSCC2 + O=C(Oc1ccc([N+](=O)[O-])cc1)N1CCC(C(O)(c2ccc3c(c2)OCO3)c2ccc3c(c2)OCO3)CC1 [JZL184] (first compound 10 µM, partner dose 5 µM)",81.7%
6,"CN1CCN(c2ccc3nc(-c4c(N)c5c(F)cccc5[nH]c4=O)[nH]c3c2)CC1 [Dovitinib] + C/C(O)=C(\C#N)C(=O)Nc1cc(Br)ccc1Br [LFM-A13] (first compound 0.5 µM, partner dose 10 µM)",75.1%
7,"O=C(CCCCCCC(=O)Nc1ccccc1)NO [vorinostat] + Cc1cc(SCc2sc(-c3ccc(C(F)(F)F)c(F)c3)nc2C)ccc1OCC(=O)O [GW0742] (first compound 0.4 µM, partner dose 10 µM)",98%
8,"COc1ccc(COc2ccc(Cc3cnc(N)nc3N)cc2OC)cc1 + Cc1cc(SCc2sc(-c3ccc(C(F)(F)F)c(F)c3)nc2C)ccc1OCC(=O)O [GW0742] (first compound 5 µM, partner dose 10 µM)",103%
9,"Cc1cc(Nc2cc(N3CCN(C)CC3)nc(Sc3ccc(NC(=O)C4CC4)cc3)n2)n[nH]1 [Tozasertib] + O=C(Oc1ccc([N+](=O)[O-])cc1)N1CCC(C(O)(c2ccc3c(c2)OCO3)c2ccc3c(c2)OCO3)CC1 [JZL184] (first compound 0.03 µM, partner dose 5 µM)",75.3%
10,"Cn1c(Nc2ccc(C(F)(F)F)cc2)nc2cc(Oc3ccnc(-c4ncc(C(F)(F)F)[nH]4)c3)ccc21 + O=C(Oc1ccc([N+](=O)[O-])cc1)N1CCC(C(O)(c2ccc3c(c2)OCO3)c2ccc3c(c2)OCO3)CC1 [JZL184] (first compound 0.4 µM, partner dose 5 µM)",68.9%
11,"O=C(CCCCCCC(=O)Nc1ccccc1)NO [vorinostat] + C/C(O)=C(\C#N)C(=O)Nc1cc(Br)ccc1Br [LFM-A13] (first compound 0.4 µM, partner dose 10 µM)",90.8%
12,"Cn1c(Nc2ccc(C(F)(F)F)cc2)nc2cc(Oc3ccnc(-c4ncc(C(F)(F)F)[nH]4)c3)ccc21 + C/C(O)=C(\C#N)C(=O)Nc1cc(Br)ccc1Br [LFM-A13] (first compound 0.4 µM, partner dose 10 µM)",63.6%
13,"C=CCn1c(=O)c2cnc(Nc3ccc(N4CCN(C)CC4)cc3)nc2n1-c1cccc(C(C)(C)O)n1 + O=C(Oc1ccc([N+](=O)[O-])cc1)N1CCC(C(O)(c2ccc3c(c2)OCO3)c2ccc3c(c2)OCO3)CC1 [JZL184] (first compound 0.1 µM, partner dose 5 µM)",76.7%
14,"CC(C)C[C@H](NC(=O)[C@H](Cc1ccccc1)NC(=O)c1cnccn1)B(O)O [Bortezomib] + O=C(Oc1ccc([N+](=O)[O-])cc1)N1CCC(C(O)(c2ccc3c(c2)OCO3)c2ccc3c(c2)OCO3)CC1 [JZL184] (first compound 0.005 µM, partner dose 5 µM)",7.63%
15,"Clc1ccc(Nc2nnc(Cc3ccncc3)c3ccccc23)cc1 [vatalanib] + O=C(Oc1ccc([N+](=O)[O-])cc1)N1CCC(C(O)(c2ccc3c(c2)OCO3)c2ccc3c(c2)OCO3)CC1 [JZL184] (first compound 10 µM, partner dose 5 µM)",78%
16,"COc1cc2ncnc(Nc3ccc(Oc4ccccc4)cc3)c2cc1OC + O=C(Oc1ccc([N+](=O)[O-])cc1)N1CCC(C(O)(c2ccc3c(c2)OCO3)c2ccc3c(c2)OCO3)CC1 [JZL184] (first compound 10 µM, partner dose 5 µM)",81%
17,"C=CCn1c(=O)c2cnc(Nc3ccc(N4CCN(C)CC4)cc3)nc2n1-c1cccc(C(C)(C)O)n1 + Cc1cc(SCc2sc(-c3ccc(C(F)(F)F)c(F)c3)nc2C)ccc1OCC(=O)O [GW0742] (first compound 0.1 µM, partner dose 10 µM)",66.3%
18,"Nc1ccn([C@@H]2O[C@H](CO)[C@@H](O)C2(F)F)c(=O)n1 [gemcitabine] + O=C(Oc1ccc([N+](=O)[O-])cc1)N1CCC(C(O)(c2ccc3c(c2)OCO3)c2ccc3c(c2)OCO3)CC1 [JZL184] (first compound 0.002 µM, partner dose 5 µM)",78.5%
19,"COc1cc(N2CCC(N3CCN(C)CC3)CC2)ccc1Nc1ncc(Cl)c(Nc2ccccc2S(=O)(=O)C(C)C)n1 + O=C(Oc1ccc([N+](=O)[O-])cc1)N1CCC(C(O)(c2ccc3c(c2)OCO3)c2ccc3c(c2)OCO3)CC1 [JZL184] (first compound 0.4 µM, partner dose 5 µM)",82.6%

# Source: the supplement of paper PMC4604168 (melanoma cell lines)
